Test results as given in the supplement of paper PMC3334620.
Over roughly 33,000 sequences, “E-score (-0.5 to 0.5)” has its median near -0.012; the highest 2% begin near 0.27. Some of the results follow.

The sequences below were run against T1, Vhr1 (UniProt P40522) (assay: PBM E-score (8-mer binding enrichment) (E-score (-0.5 to 0.5)); higher = stronger / more preferred TF binding; most listed sequences are background and not binding sites). Conditions: protein concentration: 200 nM; construct: GST-full length.
T1 sequence: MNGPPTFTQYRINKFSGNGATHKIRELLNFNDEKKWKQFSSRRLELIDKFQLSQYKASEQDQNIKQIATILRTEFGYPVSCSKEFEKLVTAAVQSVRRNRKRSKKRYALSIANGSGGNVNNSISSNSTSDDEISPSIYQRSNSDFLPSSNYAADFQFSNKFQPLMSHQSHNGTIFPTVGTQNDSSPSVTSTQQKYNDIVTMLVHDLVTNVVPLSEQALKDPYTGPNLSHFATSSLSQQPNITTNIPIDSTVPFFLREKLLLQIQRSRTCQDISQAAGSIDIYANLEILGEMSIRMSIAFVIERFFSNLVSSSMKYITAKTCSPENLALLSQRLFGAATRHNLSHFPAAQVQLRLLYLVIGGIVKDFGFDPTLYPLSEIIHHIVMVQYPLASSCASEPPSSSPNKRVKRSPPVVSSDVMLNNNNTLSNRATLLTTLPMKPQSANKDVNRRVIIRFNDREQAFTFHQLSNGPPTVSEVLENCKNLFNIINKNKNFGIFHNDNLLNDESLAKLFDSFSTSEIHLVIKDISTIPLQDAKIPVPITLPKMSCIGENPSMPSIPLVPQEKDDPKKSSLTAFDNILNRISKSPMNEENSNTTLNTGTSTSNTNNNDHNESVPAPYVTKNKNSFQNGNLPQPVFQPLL
Outline: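 GST-tagged yeast TFs (full-length or DNA-binding domain) were made by PURExpress in vitro transcription/translation and applied at about 100-200 nM to universal all-10-mer Agilent arrays. The arrays were made double-stranded by primer extension, on fresh or once-stripped slides. Bound protein was detected with fluorescent anti-GST, and scans were normalised with masliner. Each ungapped eight-base word, pooled with its reverse complement, received an E-score (modified Wilcoxon-Mann-Whitney statistic) from the Universal PBM Analysis Suite.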

Sequence	PBM E-score
GCCGTGTA	-0.0705
ATTGATAC	0.198
CACATAAA	-0.0385
GGTGTGAC	0.189
CAACACTC	0.0881
ACGACCAG	0.0585
TGTATTAA	0.189
ACCTCTAA	-0.202
AGGCTGGG	-0.184
CGATATTC	-0.073
AATACATG	0.169
ACGCGCGC	0.107
AAACCCCA	-0.078
CTATCAGA	0.119
CTGTGGTC	0.123
AGCATTAA	0.0645
GCAAGAGA	-0.162
GGCGGTTA	0.157
GCTCGTAC	0.124
ACCGATTC	-0.0343
GAATCATC	0.437
CATCTGAA	0.0775
AGTCAGGC	0.404
CGTCGTCA	0.0838
TCGAACCA	0.00961

Sequence	PBM E-score
CTGTGATA	0.07
ATCCGAAT	0.261
ATAGACTG	0.0961
CGAAACTC	-0.163
CCGGAACG	-0.0334
AAGGATCT	-0.118
AGCAGGAA	-0.181
AAAGACTC	0.0621
ATATTAGA	-0.139
GTGTTAAA	-0.204
CCATGCCG	0.0436
GGCAGGTA	-0.122
CCAAGGTA	0.0816
ACCGGCTA	-0.036
GGAAGCGA	-0.0821
GCTTGACC	-0.13
AAGGATAA	-0.0506
AAAGGAGA	-0.0289
AGAAACGC	-0.0578
ATGTCCGG	-0.174
GTCTTCCA	-0.117
ACATAATG	0.168
ATAATTAC	-0.0317
ACGATAAT	0.0207
ATCCGCAG	0.128

Sequence	PBM E-score
CGCTATAG	-0.233
GCACGTAA	-0.134
GTAGTAAA	-0.0957
ACAACTAC	0.185
GTCTTCAC	-0.058
GGGGCCTA	-0.204
CTATCAAG	0.0277
AGATATAC	0.0373
AATGGAGG	-0.0309
ACAGGAGG	-0.164
GCGACGGA	-0.0218
ATAGAGCC	-0.122
AAGGACAG	-0.0727
GTTAGGTA	0.0774
ATATCGTA	0.183
CTGCGAAC	-0.0741
CCAAATCA	0.166
GGACGTAA	-0.241
GGGAACTA	-0.0154
CACGGAGC	0.016
GCATACCA	0.0583
ACCCCCGA	0.00996
ACCCATGA	0.287
ACGGATGC	-0.0748
TGGATCAA	0.0735

Sequence	PBM E-score
ATAGACCC	-0.0379
CAGTCGAC	0.197
AGTCTGTA	-0.0759
GGCTCCAA	-0.157
AGAGTGGC	-0.15
GATGAAGA	-0.106
GAGCCCGC	0.157
ATCGCATC	0.109
ATAACGCA	-0.0139
GTAGGTAA	-0.114
TAACCACA	0.194
CATCGCTA	0.157
TGTAAACA	0.0594
CCGGAAAG	-0.27
GGCTAACC	-0.118
GCTCGTCA	0.0737
AAACTAAA	-0.0946
ACAGCTAC	-0.0319
CTAATGTA	-0.0533
GAAGAAAC	-0.129
CTCTGACC	-0.0317
CTTCTGTC	-0.278
ACATGTAC	0.107
CGCATTTC	0.0975
CGGGAAAG	-0.0324

Sequence	PBM E-score
ACGGTCAT	0.156
GAAGTGTA	-0.125
CCTCCGTC	-0.111
AATACTAC	0.0494
AGTAGACG	0.0506
ACGCTATC	-0.104
CGTGTAAG	0.133
TATGACCA	0.0633
GATTCCAA	0.208
GCGTGCCA	-0.286
ATACTATC	0.128
CCCAGGAC	-0.00921
GTGCGGTA	0.121
CCAGCAGG	0.00639
CTTACTCA	0.176
AGCTCAAT	-0.0968
AGTAGAGC	-0.121
AGGTTGAG	-0.0428
TGTCCGAA	-0.0223
ATAATGAC	0.136
CTGCGCCA	0.115
AACTTCGC	-0.229
ACAGGAGC	-0.0567
AACCTCTA	-0.158
CTGTTTTC	-0.183

Sequence	PBM E-score
GTAAGGAC	-0.0512
GTAACGGA	0.0219
AAGAGCTT	-0.233
GTTTAAAC	-0.135
ACAGGACG	-0.0214
AACTGGAG	-0.16
AGGTCTGC	-0.0985
ATAGAAAC	-0.0561
AACGTATC	-0.0587
CCGGTACC	-0.0228
AGACTTCG	-0.0819
ACGCCTAA	-0.0505
ACCCCCAA	-0.0406
CGTGAGTC	0.428
GCTACGGA	-0.128
CAACACGC	-0.0709
CGCCCATC	0.178
CGATCTAG	-0.0972
ACTCCGAT	0.1
ATGGGCTC	0.272
AGACCTTG	-0.035
AAACCTCC	-0.168
AGTTCTGC	-0.039
ACTAATAA	0.0661
CGCGTACG	0.0931

Sequence	PBM E-score
AAGCACAC	0.0247
ATCCCGGC	0.0143
CTATCGGA	-0.237
CAGGCTGG	-0.0642
CTAATCCC	-0.0416
AAACAGCA	-0.0592
AACAAAGA	-0.125
CTGGAGTA	-0.0097
CTGTGCGA	-0.143
AAAGCGCG	-0.248
CTAGACCC	-0.12
ATTTCCGA	-0.0676
TGTTTCAA	-0.00182
GCAATATA	0.11
AAGTCTGC	-0.241
ATCAGCGA	-0.0565
CTTATGGA	-0.12
GGTCATAC	0.0467
GCCCCTCA	-0.0991
AACGTGAA	-0.0973
CGACACGC	0.191
ATCGATCG	0.0613
